{"source": "the supplement of paper PMC10724272", "note": "MIC of invasive clinical C. tropicalis isolates, CLSI broth microdilution (fluconazole 0.12-256 mg/L, up to 1,024 for the azole-resistant cluster and its neighbour group; other ranges not stated); higher = less susceptible. Call: susceptible or wild type [S] / resistant or non-wild type [R] by CLSI breakpoints or cut-offs; intermediate and dose-dependent carry no call. '<=' and '>=' at the end values are inferred; the source marks only some of them. Isolates are numbered anew."}
{"compound": "CC[C@@H]([C@H](C)O)n1ncn(-c2ccc(N3CCN(c4ccc(OC[C@@H]5CO[C@@](Cn6cncn6)(c6ccc(F)cc6F)C5)cc4)CC3)cc2)c1=O [posaconazole]", "assay": "CLSI broth microdilution."}
{"test system": "Candida tropicalis isolate 28 (ERG11 copies: 2, Erg11p: no key change)", "MIC": "0.25 mg/L [S]"}
{"test system": "Candida tropicalis isolate 334 (ERG11 copies: 2, Erg11p: no key change)", "MIC": "0.5 mg/L [R]"}
{"test system": "Candida tropicalis isolate 121 (ERG11 copies: 2, Erg11p: no key change)", "MIC": "0.25 mg/L [S]"}
{"test system": "Candida tropicalis isolate 287 (ERG11 copies: 2, Erg11p: no key change)", "MIC": "0.25 mg/L [S]"}
{"test system": "Candida tropicalis isolate 20 (ERG11 copies: 8, Erg11p: Y132F, S154F (heterozygous))", "MIC": "0.25 mg/L [S]"}
{"test system": "Candida tropicalis isolate 65 (ERG11 copies: 2, Erg11p: no key change)", "MIC": "0.25 mg/L [S]"}
{"test system": "Candida tropicalis isolate 282 (ERG11 copies: 2, Erg11p: no key change)", "MIC": "0.12 mg/L [S]"}
{"test system": "Candida tropicalis isolate 183 (ERG11 copies: 2, Erg11p: no key change)", "MIC": "0.06 mg/L [S]"}
{"test system": "Candida tropicalis isolate 353 (ERG11 copies: 2, Erg11p: no key change)", "MIC": "0.12 mg/L [S]"}
{"test system": "Candida tropicalis isolate 189 (ERG11 copies: 2, Erg11p: no key change)", "MIC": "1 mg/L [R]"}
{"test system": "Candida tropicalis isolate 76 (ERG11 copies: 8, Erg11p: Y132F, S154F (heterozygous))", "MIC": "1 mg/L [R]"}
{"test system": "Candida tropicalis isolate 440 (ERG11 copies: 5, Erg11p: Y132F, S154F (heterozygous))", "MIC": "1 mg/L [R]"}
{"test system": "Candida tropicalis isolate 405 (ERG11 copies: 2, Erg11p: Y132F, S154F (homozygous))", "MIC": "0.25 mg/L [S]"}
{"test system": "Candida tropicalis isolate 378 (ERG11 copies: 8, Erg11p: Y132F, S154F (heterozygous))", "MIC": "0.5 mg/L [R]"}
{"test system": "Candida tropicalis isolate 427 (ERG11 copies: 2, Erg11p: no key change)", "MIC": "0.25 mg/L [S]"}
{"test system": "Candida tropicalis isolate 205 (ERG11 copies: 6, Erg11p: Y132F, S154F (heterozygous))", "MIC": "0.5 mg/L [R]"}
{"test system": "Candida tropicalis isolate 352 (ERG11 copies: 2, Erg11p: no key change)", "MIC": "0.5 mg/L [R]"}
{"test system": "Candida tropicalis isolate 374 (ERG11 copies: 2, Erg11p: no key change)", "MIC": "0.12 mg/L [S]"}
{"compound": "CCC(C)n1ncn(-c2ccc(N3CCN(c4ccc(OCC5COC(Cn6cncn6)(c6ccc(Cl)cc6Cl)O5)cc4)CC3)cc2)c1=O [itraconazole]", "assay": "CLSI broth microdilution."}
{"test system": "Candida tropicalis isolate 149 (ERG11 copies: 8, Erg11p: Y132F, S154F (heterozygous))", "MIC": "1 mg/L [R]"}
{"test system": "Candida tropicalis isolate 187 (ERG11 copies: 2, Erg11p: no key change)", "MIC": "0.5 mg/L [S]"}
{"test system": "Candida tropicalis isolate 436 (ERG11 copies: 2, Erg11p: no key change)", "MIC": "0.06 mg/L [S]"}
{"test system": "Candida tropicalis isolate 50 (ERG11 copies: 2, Erg11p: no key change)", "MIC": "0.25 mg/L [S]"}
{"test system": "Candida tropicalis isolate 148 (ERG11 copies: 2, Erg11p: no key change)", "MIC": "0.5 mg/L [S]"}
{"test system": "Candida tropicalis isolate 298 (ERG11 copies: 2, Erg11p: no key change)", "MIC": "0.5 mg/L [S]"}
{"test system": "Candida tropicalis isolate 346 (ERG11 copies: 9, Erg11p: Y132F, S154F (heterozygous))", "MIC": "1 mg/L [R]"}
{"test system": "Candida tropicalis isolate 78 (ERG11 copies: 8, Erg11p: Y132F, S154F (heterozygous))", "MIC": "1 mg/L [R]"}
{"test system": "Candida tropicalis isolate 221 (ERG11 copies: 2, Erg11p: no key change)", "MIC": "0.25 mg/L [S]"}
{"test system": "Candida tropicalis isolate 341 (ERG11 copies: 2, Erg11p: Y132F, S154F (heterozygous))", "MIC": "0.25 mg/L [S]"}
{"test system": "Candida tropicalis isolate 37 (ERG11 copies: 2, Erg11p: no key change)", "MIC": "≥ 16 mg/L [R]"}
{"test system": "Candida tropicalis isolate 95 (ERG11 copies: 2, Erg11p: no key change)", "MIC": "0.25 mg/L [S]"}
{"test system": "Candida tropicalis isolate 45 (ERG11 copies: 2, Erg11p: no key change)", "MIC": "0.25 mg/L [S]"}
{"test system": "Candida tropicalis isolate 404 (ERG11 copies: 2, Erg11p: no key change)", "MIC": "0.25 mg/L [S]"}
{"test system": "Candida tropicalis isolate 44 (ERG11 copies: 2, Erg11p: no key change)", "MIC": "8 mg/L [R]"}
{"test system": "Candida tropicalis isolate 286 (ERG11 copies: 2, Erg11p: no key change)", "MIC": "0.25 mg/L [S]"}
{"test system": "Candida tropicalis isolate 30 (ERG11 copies: 2, Erg11p: no key change)", "MIC": "0.06 mg/L [S]"}
{"test system": "Candida tropicalis isolate 285 (ERG11 copies: 2, Erg11p: no key change)", "MIC": "0.25 mg/L [S]"}
{"test system": "Candida tropicalis isolate 28 (ERG11 copies: 2, Erg11p: no key change)", "MIC": "0.25 mg/L [S]"}
{"test system": "Candida tropicalis isolate 334 (ERG11 copies: 2, Erg11p: no key change)", "MIC": "0.5 mg/L [S]"}
{"test system": "Candida tropicalis isolate 121 (ERG11 copies: 2, Erg11p: no key change)", "MIC": "0.12 mg/L [S]"}
{"test system": "Candida tropicalis isolate 287 (ERG11 copies: 2, Erg11p: no key change)", "MIC": "0.25 mg/L [S]"}
{"test system": "Candida tropicalis isolate 20 (ERG11 copies: 8, Erg11p: Y132F, S154F (heterozygous))", "MIC": "0.25 mg/L [S]"}
{"test system": "Candida tropicalis isolate 65 (ERG11 copies: 2, Erg11p: no key change)", "MIC": "0.25 mg/L [S]"}
{"test system": "Candida tropicalis isolate 282 (ERG11 copies: 2, Erg11p: no key change)", "MIC": "0.12 mg/L [S]"}
{"test system": "Candida tropicalis isolate 183 (ERG11 copies: 2, Erg11p: no key change)", "MIC": "0.12 mg/L [S]"}
{"test system": "Candida tropicalis isolate 353 (ERG11 copies: 2, Erg11p: no key change)", "MIC": "0.12 mg/L [S]"}
{"test system": "Candida tropicalis isolate 189 (ERG11 copies: 2, Erg11p: no key change)", "MIC": "0.5 mg/L [S]"}
{"test system": "Candida tropicalis isolate 76 (ERG11 copies: 8, Erg11p: Y132F, S154F (heterozygous))", "MIC": "0.5 mg/L [S]"}
{"test system": "Candida tropicalis isolate 440 (ERG11 copies: 5, Erg11p: Y132F, S154F (heterozygous))", "MIC": "1 mg/L [R]"}
{"test system": "Candida tropicalis isolate 405 (ERG11 copies: 2, Erg11p: Y132F, S154F (homozygous))", "MIC": "0.25 mg/L [S]"}
{"test system": "Candida tropicalis isolate 378 (ERG11 copies: 8, Erg11p: Y132F, S154F (heterozygous))", "MIC": "0.5 mg/L [S]"}
{"test system": "Candida tropicalis isolate 427 (ERG11 copies: 2, Erg11p: no key change)", "MIC": "0.25 mg/L [S]"}
{"test system": "Candida tropicalis isolate 205 (ERG11 copies: 6, Erg11p: Y132F, S154F (heterozygous))", "MIC": "0.25 mg/L [S]"}
{"test system": "Candida tropicalis isolate 352 (ERG11 copies: 2, Erg11p: no key change)", "MIC": "0.25 mg/L [S]"}
{"test system": "Candida tropicalis isolate 374 (ERG11 copies: 2, Erg11p: no key change)", "MIC": "0.12 mg/L [S]"}
{"compound": "CCCCCOc1ccc(-c2ccc(-c3ccc(C(=O)N[C@H]4C[C@@H](O)[C@@H](O)NC(=O)[C@@H]5[C@@H](O)[C@@H](C)CN5C(=O)[C@H]([C@@H](C)O)NC(=O)[C@H]([C@H](O)[C@@H](O)c5ccc(O)cc5)NC(=O)[C@@H]5C[C@@H](O)CN5C(=O)[C@H]([C@@H](C)O)NC4=O)cc3)cc2)cc1 [anidulafungin]", "assay": "CLSI broth microdilution."}
{"test system": "Candida tropicalis isolate 149 (ERG11 copies: 8, Erg11p: Y132F, S154F (heterozygous))", "MIC": "0.12 mg/L [S]"}
{"test system": "Candida tropicalis isolate 187 (ERG11 copies: 2, Erg11p: no key change)", "MIC": "0.06 mg/L [S]"}
{"test system": "Candida tropicalis isolate 436 (ERG11 copies: 2, Erg11p: no key change)", "MIC": "0.06 mg/L [S]"}
{"test system": "Candida tropicalis isolate 50 (ERG11 copies: 2, Erg11p: no key change)", "MIC": "0.12 mg/L [S]"}
{"test system": "Candida tropicalis isolate 148 (ERG11 copies: 2, Erg11p: no key change)", "MIC": "0.12 mg/L [S]"}
{"test system": "Candida tropicalis isolate 298 (ERG11 copies: 2, Erg11p: no key change)", "MIC": "0.03 mg/L [S]"}
{"test system": "Candida tropicalis isolate 346 (ERG11 copies: 9, Erg11p: Y132F, S154F (heterozygous))", "MIC": "≤ 0.015 mg/L [S]"}
{"test system": "Candida tropicalis isolate 78 (ERG11 copies: 8, Erg11p: Y132F, S154F (heterozygous))", "MIC": "0.03 mg/L [S]"}
{"test system": "Candida tropicalis isolate 221 (ERG11 copies: 2, Erg11p: no key change)", "MIC": "0.12 mg/L [S]"}
{"test system": "Candida tropicalis isolate 341 (ERG11 copies: 2, Erg11p: Y132F, S154F (heterozygous))", "MIC": "0.12 mg/L [S]"}
{"test system": "Candida tropicalis isolate 37 (ERG11 copies: 2, Erg11p: no key change)", "MIC": "0.12 mg/L [S]"}
{"test system": "Candida tropicalis isolate 95 (ERG11 copies: 2, Erg11p: no key change)", "MIC": "0.03 mg/L [S]"}
{"test system": "Candida tropicalis isolate 45 (ERG11 copies: 2, Erg11p: no key change)", "MIC": "0.12 mg/L [S]"}
{"test system": "Candida tropicalis isolate 404 (ERG11 copies: 2, Erg11p: no key change)", "MIC": "0.25 mg/L [S]"}
{"test system": "Candida tropicalis isolate 44 (ERG11 copies: 2, Erg11p: no key change)", "MIC": "0.12 mg/L [S]"}
{"test system": "Candida tropicalis isolate 286 (ERG11 copies: 2, Erg11p: no key change)", "MIC": "0.03 mg/L [S]"}
{"test system": "Candida tropicalis isolate 30 (ERG11 copies: 2, Erg11p: no key change)", "MIC": "≤ 0.015 mg/L [S]"}
{"test system": "Candida tropicalis isolate 285 (ERG11 copies: 2, Erg11p: no key change)", "MIC": "0.03 mg/L [S]"}
{"test system": "Candida tropicalis isolate 28 (ERG11 copies: 2, Erg11p: no key change)", "MIC": "≤ 0.015 mg/L [S]"}
{"test system": "Candida tropicalis isolate 334 (ERG11 copies: 2, Erg11p: no key change)", "MIC": "0.12 mg/L [S]"}
{"test system": "Candida tropicalis isolate 121 (ERG11 copies: 2, Erg11p: no key change)", "MIC": "0.12 mg/L [S]"}
{"test system": "Candida tropicalis isolate 287 (ERG11 copies: 2, Erg11p: no key change)", "MIC": "0.12 mg/L [S]"}
{"test system": "Candida tropicalis isolate 20 (ERG11 copies: 8, Erg11p: Y132F, S154F (heterozygous))", "MIC": "0.06 mg/L [S]"}
{"test system": "Candida tropicalis isolate 65 (ERG11 copies: 2, Erg11p: no key change)", "MIC": "0.03 mg/L [S]"}
{"test system": "Candida tropicalis isolate 282 (ERG11 copies: 2, Erg11p: no key change)", "MIC": "0.12 mg/L [S]"}
{"test system": "Candida tropicalis isolate 183 (ERG11 copies: 2, Erg11p: no key change)", "MIC": "0.03 mg/L [S]"}
{"test system": "Candida tropicalis isolate 353 (ERG11 copies: 2, Erg11p: no key change)", "MIC": "0.06 mg/L [S]"}
